Experimental findings from ChEMBL document CHEMBL4888484, “Replenishing the malaria drug discovery pipeline: Screening and hit evaluation of the MMV Hit Generation Library 1 (HGL1) against asexual blood stage Plasmodium falciparum ,using a nano luciferase reporter read-out” (2022) are described below.

In all, about 150,000 compounds went through this assay and about 540 (0.36%) showed an effect of 50% or more. The list shows a part of the results.

In this test the test system is Plasmodium falciparum. The test is described as follows: Primary screen in NF54 nanoGlo assay, in single point, at 2uM, 72h; a lower Z score goes with more inhibition. The format is functional, Erythrocyte. The following applies: timepoint 72 hour.
For `CCCNC(=O)c1cccnc1-c1cccc(C(=O)N2CC=C(C)CC2)c1`, the “% Inhibition” value was -8% and the Z score is listed as 1.47.
Turning to `Cc1nc(N2CC(Cn3nc4c(cc3=O)CCC4)C2)c2cnn(C)c2n1`, the “% Inhibition” value is reported as -3% and the Z score was determined as 0.54.
The corresponding values for `O=S1(=O)C[C@H](N2CCOCC2)[C@@H](S(=O)(=O)c2ccccc2)C1` are -6% and 0.73.
The corresponding values for `Cc1cc(C)n(-c2ccc(Oc3ccccc3)c(S(=O)(=O)O)c2)n1` are 6% and -0.7.
The corresponding values for `COc1ccc2nc(NC(=O)c3c(C)noc3-c3ccc(C)cc3)sc2c1` are -2% and 0.3.
As for `O=C(NCCc1ccccn1)c1cc2n(n1)CCN(Cc1ccccc1)C2=O`, the “% Inhibition” value is -5% and the Z score is recorded as 0.85.
In the same order, the values of `COCCN1C[C@]2(CCOC2)N(C2CCN(C(=O)c3ccc(C)s3)CC2)C1=O` are -2% and 0.24.
Take `COc1cccc(CNC(=O)c2ccc(Oc3ccccc3)cc2)c1`: the “% Inhibition” value was -14% and the Z score was determined as 2.62.
In the same order, the values of `CC(=O)Oc1cccc(N(C(C)=O)c2nc(OC(C)=O)c(C)s2)c1` are -9% and 1.22.
In the same order, the values of `COc1ccc(CN2CCCC[C@@H]2CCc2ccccn2)cn1` are -1% and 0.07.
The corresponding values for `c1cc(-c2nc3cc4ccccc4cc3[nH]2)nc(-c2nc3cc4ccccc4cc3[nH]2)c1` are 100% and -18.05.
As for `COC(=O)C[C@H](c1cccnc1)c1c(Cc2ccc3c(c2)CCO3)[nH][nH]c1=O`, the “% Inhibition” value is listed as -5% and the Z score is 0.6.
The corresponding values for `CC(C)(C)OC(=O)N1CCC2CCC(=O)C1C2` (centres undefined) are -3% and 0.52.
In the case of `CO[C@@H](COc1ccccc1-c1nnc[nH]1)C1CCCC1`, the “% Inhibition” value stood at 10% and the Z score is listed as -1.83.
In the same order, the values of `O=C(CCn1cncn1)N1CCC[C@H](c2ncc3n2CCCC3)C1` are -2% and 0.3.
In the same order, the values of `CC(C)n1ccc(CNC(=O)c2cn(C)nc2-c2ccco2)n1` are 4% and -0.5.
The corresponding values for `Cc1cnc(C(=O)N2CC(F)(F)C[C@H]2Cn2cc(C(=O)NCc3ccccc3)nn2)cn1` are 32% and -3.57.
Regarding `COc1c(C)cc(C(=O)N2CC3CCCC3C2C(=O)O)cc1C` (centres undefined), the “% Inhibition” value is 7% and the Z score was -0.73.
In the case of `CC(C)N(Cc1ccccc1)Cc1c[nH]nn1`, the “% Inhibition” value stood at 30% and the Z score is on record as -3.4.
In the same order, the values of `c1cncc(CCn2ccnc2-c2cc3n(n2)CCCNC3)c1` are -6% and 0.79.
In the same order, the values of `CC1(C)CC(O)CC(C)(C)N1C[C@H](O)COc1cccc2ccccc12` are -8% and 0.72.
Consider `CN(C)S(=O)(=O)NC[C@H](Cc1cccc(F)c1)N1CCCC1=O`, for which the “% Inhibition” value is reported as -6% and the Z score came to 0.93.
The corresponding values for `CN(C)c1ncc(CNC[C@H]2CCCn3cc(C(C)(C)C)nc32)s1` are -6% and 0.53.
In the same order, the values of `O=C([C@@H]1COc2ccccc2O1)N1CCN(c2ccc(-n3ccnc3)nn2)CC1` are -7% and 1.4.
In the same order, the values of `Cc1ccncc1N1CCN(C(=O)c2cc3cccn3cn2)CC1` are -3% and 0.41.
As to `Cc1cc(O)nc([C@H](C)N(C)CC2CCOCC2)n1`, the “% Inhibition” value was -12% and the Z score turned out to be 1.59.
The corresponding values for `Cc1cc(C(=O)O)nc(N2CCN(C3CCCCC3)CC2)n1` are -19% and 2.69.
In the same order, the values of `COCc1ccc(-c2nc(-c3ccccn3)nn2[C@H]2CCS(=O)(=O)C2)o1` are -5% and 0.86.
In the same order, the values of `Cc1cc(Cn2ccnc2-c2cncc(Br)c2)no1` are -17% and 1.95.
As to `Cc1ccc(C2=NN(C(=O)CN(CCN3CCOCC3)C(=O)C3CCC3)[C@H](c3ccc4c(c3)OCO4)C2)cc1C`, the “% Inhibition” value is on record as -7% and the Z score is listed as 0.66.
In the same order, the values of `CC(=O)NCCNC(=O)c1csc(-c2cc3ccccc3n2C)n1` are 9% and -1.12.
The corresponding values for `Cc1ccccc1C(=O)OC1CCN(c2nncc3ccccc23)CC1` are 2% and -0.26.
In the same order, the values of `Cc1cc(N2CCN(C)CC2)ccc1NC(=O)C[C@H](NC(N)=O)c1cccc(Oc2ccccc2)c1` are -3% and 0.5.
Take `CCC(NC(=O)OC1CCCC1)(C(F)(F)F)C(F)(F)F`: the “% Inhibition” value was found to be 9% and the Z score is listed as -1.39.
For the compound `Cc1nnc(N2CCN(CCC(=O)N(C)CCC#N)CC2)s1`, the “% Inhibition” value is -3% and the Z score is 0.47.
`CC(C)NC(=O)Nc1ccc(Cl)c(Cl)c1`: the “% Inhibition” value is given as -1% and the Z score amounted to 0.08.
The corresponding values for `Cc1ccc(C(=O)OCC(=O)NC(C)(C)C)c(O)c1` are -10% and 1.31.
Consider `CCc1nc(-c2ccc(-c3cn[nH]c3)cc2)nn1C`, for which the “% Inhibition” value was determined as 1% and the Z score is -0.25.
`CN(C)c1nc2c(c(=O)[nH]1)CCN(S(=O)(=O)N1CCCCCC1)C2`: the “% Inhibition” value was -6% and the Z score is 1.15.
For the compound `Clc1ccc(-c2n[nH]cc2-c2nnc(-c3ccncc3)o2)cc1`, the “% Inhibition” value was 2% and the Z score is -0.28.
The corresponding values for `CC(C)(C)NC(=O)[C@]1(C)CCC(=O)N1CCc1c[nH]c2ccccc12` are -2% and 0.29.
Consider `COc1cc([C@H]2Nc3ccccc3C(=O)N2Cc2ccc3c(c2)OCO3)cc(Cl)c1OCC(N)=O`, for which the “% Inhibition” value is listed as -7% and the Z score is 0.91.
